Measurements as given in PMC4336329 (PLoS ONE, 2015).
Among all 310,000 compounds or so, about 14,000 (4.5%) showed an effect of 50% or more. Effects have a minus sign here. This is one part of the list.

molecular target: human ether-à-go-go-related gene (hERG) potassium channel (human, UniProt Q12809); assay: primary screen, population patch clamp on CHO cells stably expressing hERG
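Note: peak tail current of the secondary pulse compared with the same well before compound.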

human ether-à-go-go-related gene (hERG) potassium channel, sequence (Q12809 whole entry, looked up): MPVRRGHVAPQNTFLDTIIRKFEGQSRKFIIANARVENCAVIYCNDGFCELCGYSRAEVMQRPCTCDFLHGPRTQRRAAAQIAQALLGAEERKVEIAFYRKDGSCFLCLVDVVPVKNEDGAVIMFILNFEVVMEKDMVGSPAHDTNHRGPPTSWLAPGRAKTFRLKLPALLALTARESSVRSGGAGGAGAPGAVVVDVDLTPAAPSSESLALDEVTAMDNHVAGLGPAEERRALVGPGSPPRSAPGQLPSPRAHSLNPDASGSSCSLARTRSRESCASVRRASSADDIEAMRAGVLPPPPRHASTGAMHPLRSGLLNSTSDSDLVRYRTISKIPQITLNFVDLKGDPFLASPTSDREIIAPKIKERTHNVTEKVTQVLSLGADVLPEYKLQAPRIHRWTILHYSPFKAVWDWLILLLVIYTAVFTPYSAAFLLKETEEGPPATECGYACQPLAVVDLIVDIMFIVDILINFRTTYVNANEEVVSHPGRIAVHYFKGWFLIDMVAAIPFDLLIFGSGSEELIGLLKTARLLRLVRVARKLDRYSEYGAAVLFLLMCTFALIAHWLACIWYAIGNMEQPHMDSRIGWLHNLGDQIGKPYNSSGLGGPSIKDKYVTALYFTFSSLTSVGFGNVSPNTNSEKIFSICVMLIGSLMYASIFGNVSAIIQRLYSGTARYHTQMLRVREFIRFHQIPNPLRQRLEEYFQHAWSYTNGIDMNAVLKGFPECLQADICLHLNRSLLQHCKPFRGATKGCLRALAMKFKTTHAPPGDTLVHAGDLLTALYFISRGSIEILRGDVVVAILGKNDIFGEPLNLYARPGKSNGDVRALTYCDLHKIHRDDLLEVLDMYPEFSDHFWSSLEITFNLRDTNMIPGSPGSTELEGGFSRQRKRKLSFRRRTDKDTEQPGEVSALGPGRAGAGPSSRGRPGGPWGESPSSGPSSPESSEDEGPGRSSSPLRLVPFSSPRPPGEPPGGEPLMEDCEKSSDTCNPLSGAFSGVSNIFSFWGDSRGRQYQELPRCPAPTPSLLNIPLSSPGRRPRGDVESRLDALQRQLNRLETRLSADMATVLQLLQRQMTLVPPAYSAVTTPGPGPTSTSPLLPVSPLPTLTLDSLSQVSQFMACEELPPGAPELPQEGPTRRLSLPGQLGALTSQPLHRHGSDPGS

Row | Structure (SMILES) | hERG current change (%, negative = inhibition) at 10uM
1 | COc1ccc(OC)c2[nH]c(=O)c(CCNC(=O)c3ccc(S(=O)(=O)N4CCCC4)cc3)cc12 | -17.3%
2 | Cc1nc2ncnn2c(C)c1Cc1ccc(Cl)cc1 | -8.29%
3 | O=c1[nH]c(=S)n(C2CC2)c(O)c1/C=N/N1CCOCC1 | 1.22%
4 | Cc1cc(OCCOCCNC(C)C)cc(C)c1Cl.O=C(O)C(=O)O | -47.3%
5 | O=C1C2CCCN2C(c2cccs2)N1c1ccc(Cl)cc1 (stereo not drawn) | 3.41%
6 | COc1ccc2c(c1OC)C(=O)OC2CC(=O)O (stereo not drawn) | 15.8%
7 | Cc1nnc(NC(=O)CSc2cn(Cc3ccccc3)c3ccccc23)s1 | -10.9%
8 | CCOC(=O)c1c(-c2ccccc2)csc1NC(=O)c1cc(S(=O)(=O)N2CCOCC2)ccc1C | 2.23%
9 | CCCNC(=O)COC(=O)c1ccccc1OCC(=O)Nc1ccc(Br)cc1 | 15.2%
10 | O=C1/C(=C\c2ccc(Br)o2)Cc2ccccc21 | 2.56%
11 | CCCCN(C)C(=O)c1nc2ccccn2c1CN1CCN(c2ccccn2)CC1 | -7.16%
12 | CC(=O)c1ccc(S(=O)(=O)N2CCN(CC#N)CC2)cc1 | -2.7%
13 | Cn1ccnc1SCC(=O)n1c2c(c3ccccc31)CCCC2 | -4.61%
14 | Cc1ccc(C(=O)CSc2nnc(Cn3nnc4ccccc43)n2C)cc1 | -6.97%
15 | COc1ccc(-n2cc(-c3ccccc3)c3c(=S)nc[nH]c32)cc1 | 8.07%
16 | O=C1CC(NS(=O)(=O)c2ccc([N+](=O)[O-])cc2)CN1c1cccc(F)c1 (stereo not drawn) | -39.4%
17 | Cc1nn(C)c(C)c1N1C(=O)c2cccc3c(N)ccc(c23)C1=O | 0.353%
18 | O=C(N/N=C/c1cc(Br)cs1)c1c[nH]c2ccccc12 | 5.35%
19 | CC1(C)CC(=O)C/C(=N\NC(=O)C2CC2c2ccccc2)C1.I (stereo not drawn) | 30.2%
20 | Cc1ccc(NC(=O)N2CCCCCC2)cc1C | 10.9%
21 | Cc1ccc(C)c(N2N=C(C(=O)Nc3ccccc3N3CCCC3)CCC2=O)c1 | 3.97%
22 | COc1ccc(CCNC(=O)[C@H](CC(C)C)NC(=O)N2CCn3c2nc2ccccc23)cc1OC | 4.33%
23 | CC(C)Cc1ccc(C(C)C(=O)Nc2ncccn2)cc1 (stereo not drawn) | 2.64%

Row | Structure (SMILES) | hERG current change (%, negative = inhibition) at 10uM
24 | O=C(NCCCn1ccnc1)c1sc2cccc(F)c2c1Cl | -37.3%
25 | CC(=O)N1CCN(c2ccc([N+](=O)[O-])c(NCc3cccnc3)c2)CC1 | -22.3%
26 | CC(NC(=O)c1ccccc1F)C1CC1 (stereo not drawn) | 3.09%
27 | CCOc1ccccc1Oc1c(C)oc2cc(OC(=O)c3ccco3)ccc2c1=O | -7.03%
28 | O=C(CN1C(=O)NC2(CCCC2)C1=O)Nc1ccc(OC(F)(F)F)cc1 | -6.46%
29 | CCN(CCCNC(=O)Cn1ncc2c([nH]c3ccccc32)c1=O)Cc1ccccc1 | -67%
30 | NC(=O)/C=C/C(=O)Nc1ccc(Cl)cc1 | 6.1%
31 | Cc1ccc(S(=O)(=O)Nc2ccccc2C(=O)Nc2sccc2C(=O)NN(C)C)cc1 | -40.2%
32 | COCC(=O)Nc1ccccc1C#N | 10.6%
33 | CN(CC1CCCN(CCc2ccc(F)cc2)C1)C(=O)CCC(N)=O (stereo not drawn) | -23.9%
34 | CCOC(=O)N1CCN(c2nc(-c3cccs3)nc3ccccc23)CC1 | -1.74%
35 | COc1ccc(OCc2nnc(SCC(=O)NC3CCCCC3)o2)cc1 | -5.19%
36 | C1CN(c2nc3nonc3nc2N2CCOCC2)CCO1 | 20.2%
37 | CC(NC(=O)COC(=O)CNC(=O)c1ccccc1Cl)C1CC2CCC1C2 (stereo not drawn) | -7.14%
38 | Cc1cccc(Nc2nc(NCC3CCCO3)nc(N)c2[N+](=O)[O-])c1 (stereo not drawn) | -16%
39 | Cc1ccc(NC(=O)N2CCC(C(=O)NCc3ccccc3)CC2)cc1 | -22%
40 | CC(Oc1ccc(C#N)cc1)C(=O)c1ccc(F)c(F)c1 (stereo not drawn) | -51.6%
41 | NC(=O)c1c(NC(=O)c2ccco2)sc2c1CCC2 | -3.83%
42 | COc1ccc(-n2nc3c(c2NC(=O)C(C)C)CSC3)cc1 | 14.9%
43 | Cc1ccc(NC(=S)N(CCN2CCOCC2)Cc2cc3cc4c(cc3[nH]c2=O)OCO4)cc1 | -21%
44 | COc1ccccc1CNC(=O)COc1cc2c(c3oc(=O)cc(C)c13)CCC(C)(C)O2 | -18.6%
45 | CCCOc1ccc(NC(=O)CC2C(=O)Nc3ccccc3N2CC(=O)N2CCCC2)cc1 (stereo not drawn) | 4.48%
46 | COc1ccc(C2CC(c3ccc4ccccc4c3OC(C)=O)=NN2C(=O)/C=C/c2ccccc2)cc1 (stereo not drawn) | -0.389%

Row | Structure (SMILES) | hERG current change (%, negative = inhibition) at 10uM
47 | COc1ccc(N(C(C)C(=O)NN=C2CCCC2)S(C)(=O)=O)cc1 (stereo not drawn) | 21.6%
48 | CCCC1CCc2c(c3ccccc3[nH]c2=O)O1 (stereo not drawn) | 12.4%
49 | C/C(=N/NC(=O)CNC(=O)c1cccnc1)c1ccccc1 | -2.54%
50 | CC(=O)NNc1ncnc2c1cnn2-c1ccc(C)c(Cl)c1 | 3.22%
51 | Cc1ccc(S(=O)(=O)n2c3ccc(F)cc3c3nc(C)sc32)cc1 | 4.98%
52 | O=C(CNC(=O)C1COc2ccccc2O1)N/N=C\c1ccc(Br)cc1 (stereo not drawn) | -20.1%
53 | COCCn1c(N)c(C#N)c2nc3ccccc3nc21 | -14%
54 | O=C(CSc1nnc(Cn2c(=O)sc3ccccc32)n1-c1ccccc1)N1CCCC1 | -6.63%
55 | Cc1ccc(C(=O)NCC(=O)N/N=C/c2cccs2)cc1C | 5.99%
56 | COc1ccc(NC2CCCN(C(=O)CN3CCOC3=O)C2)cc1 (stereo not drawn) | 16.6%
57 | S=C(NCCc1ccc(Cl)cc1)NC1CC1 | 11.2%
58 | CCN(CC(=O)Nc1c(F)cccc1F)C(=O)CNC(=O)c1cccc(C)c1 | 16.1%
59 | O=C(CCc1nnc2ccc(N3CCCCC3)nn12)NCc1ccco1 | 4.07%
60 | CC(C)NC(=S)N/N=C/c1ccccc1[N+](=O)[O-] | 5.35%
61 | COCC(=O)N(Cc1cc2cc(OC)ccc2[nH]c1=O)c1ccccc1 | 0.711%
62 | CC(C)Cn1c(N)c(C(=O)CSc2n[nH]c(N)n2)c(=O)n(C)c1=O | 9.61%
63 | CC1CC(C)(C)CC2(C1)NC(=O)N(CC(=O)Nc1cc([N+](=O)[O-])ccc1F)C2=O (stereo not drawn) | -23.6%
64 | COCCCNC(=O)c1cc2c(=O)n3cccc(C)c3nc2s1 | 7.44%
65 | c1ccc2c(-c3cncc4ccccc34)cncc2c1 | -16.8%
66 | CCN(CC)C(=O)Oc1ccnc2cc(Cl)ccc12 | -23.3%
67 | COc1ccc([N+](=O)[O-])cc1NC(=O)C(C)OC(=O)C1CCCC1 (stereo not drawn) | -24.1%
68 | Cl.OCCN1CCN(CC(O)COc2ccc3c(c2)OCO3)CC1 (stereo not drawn) | 12.7%
69 | CN(C)S(=O)(=O)c1cc(NC(=O)CN2CCN(c3ccc(O)cc3)CC2)ccc1Cl | -6.1%

Row | Structure (SMILES) | hERG current change (%, negative = inhibition) at 10uM
70 | Nc1nc(Nc2ccccc2)nc(NCc2ccco2)c1[N+](=O)[O-] | -23.9%
71 | CC(CNS(=O)(=O)c1ccccc1)Sc1ncccn1 (stereo not drawn) | -0.584%
72 | CN(Cc1ccccc1)S(=O)(=O)c1ccc2[nH]c(=O)oc2c1 | 4.88%
73 | CC(C)CN1CCC(CNC(=O)CCc2nnc(Cc3c[nH]c4ccccc34)o2)CC1 | -1.27%
74 | NC(=S)N/N=C/c1ccccc1OCCSc1ccc(Cl)cc1 | 1.23%
75 | Cc1[nH]c2ccccc2c1/C=N\NC(=O)Cn1nnc(-c2ccccc2)n1 | 23%
76 | O=C(O)C(=O)O.O=C(c1ccccc1)N1CCN(C2CC3CCC2C3)CC1 (stereo not drawn) | -4.37%
77 | Cc1c(C)c2cc(Cl)c(OCC(=O)N3C[C@H]4C[C@@H](C3)c3cccc(=O)n3C4)cc2oc1=O | 1.78%
78 | CCn1c(CSc2nc3ccccc3[nH]2)nc2cc(C(=O)O)ccc21 | 16.4%
79 | COc1ccc(NC(=O)COC(=O)c2c(C)noc2C)c(OC)c1 | 3.73%
80 | COc1ccc(C(=O)NC(C(=O)OCC(=O)Nc2sccc2C(N)=O)C(C)C)cc1 (stereo not drawn) | -2.63%
81 | CCCCOc1ccc(C(=O)N/C(=C\c2cccc([N+](=O)[O-])c2)C(=O)OCc2ccco2)cc1 | 12.4%
82 | CCSc1nnc(NC(=O)CSc2nc3c(c(=O)n2-c2ccccc2)SCC3)s1 | -10.6%
83 | CC1=C[C@H]2Cc3cc(C)cc(C)c3S(=O)(=O)[C@@H]2C=C1 | 0.74%
84 | CN1CN(c2cccc([N+](=O)[O-])c2)CN=C1N[N+](=O)[O-] | 33%
85 | O=C(CC(c1ccccc1)c1ccccc1O)NCc1ccco1 (stereo not drawn) | -2.88%
86 | CN1N=C(C(=O)N2CCCC(Nc3ccc(F)c(F)c3)C2)CCC1=O (stereo not drawn) | 10.3%
87 | Cc1cc(SCc2ccc(Br)cc2)nc(=O)[nH]1 | 16%
88 | O=C(CN1C(=O)NC2(CCc3ccccc32)C1=O)c1ccc2c(c1)OCCO2 (stereo not drawn) | 7.1%
89 | CCCNCc1cc(Br)ccc1OCC(=O)NCCc1ccccc1 | -63.5%
90 | CC(=O)Nc1c2c(nn1-c1ccc(C)cc1C)CSC2 | 10.5%
